# According to article PMC4336329 (PLoS ONE, 2015):
# The campaign covered roughly 310,000 compounds. About 14,000 (4.5%) showed an effect of 50% or more. Effects have a minus sign here. The list shows a part of the results.
# Molecular target: human ether-à-go-go-related gene (hERG) potassium channel (human, UniProt Q12809)
# Assay: primary screen, population patch clamp on CHO cells stably expressing hERG
# 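Further: peak tail current of the secondary pulse compared with the same well before compound.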
# human ether-à-go-go-related gene (hERG) potassium channel, sequence (Q12809 whole entry, looked up): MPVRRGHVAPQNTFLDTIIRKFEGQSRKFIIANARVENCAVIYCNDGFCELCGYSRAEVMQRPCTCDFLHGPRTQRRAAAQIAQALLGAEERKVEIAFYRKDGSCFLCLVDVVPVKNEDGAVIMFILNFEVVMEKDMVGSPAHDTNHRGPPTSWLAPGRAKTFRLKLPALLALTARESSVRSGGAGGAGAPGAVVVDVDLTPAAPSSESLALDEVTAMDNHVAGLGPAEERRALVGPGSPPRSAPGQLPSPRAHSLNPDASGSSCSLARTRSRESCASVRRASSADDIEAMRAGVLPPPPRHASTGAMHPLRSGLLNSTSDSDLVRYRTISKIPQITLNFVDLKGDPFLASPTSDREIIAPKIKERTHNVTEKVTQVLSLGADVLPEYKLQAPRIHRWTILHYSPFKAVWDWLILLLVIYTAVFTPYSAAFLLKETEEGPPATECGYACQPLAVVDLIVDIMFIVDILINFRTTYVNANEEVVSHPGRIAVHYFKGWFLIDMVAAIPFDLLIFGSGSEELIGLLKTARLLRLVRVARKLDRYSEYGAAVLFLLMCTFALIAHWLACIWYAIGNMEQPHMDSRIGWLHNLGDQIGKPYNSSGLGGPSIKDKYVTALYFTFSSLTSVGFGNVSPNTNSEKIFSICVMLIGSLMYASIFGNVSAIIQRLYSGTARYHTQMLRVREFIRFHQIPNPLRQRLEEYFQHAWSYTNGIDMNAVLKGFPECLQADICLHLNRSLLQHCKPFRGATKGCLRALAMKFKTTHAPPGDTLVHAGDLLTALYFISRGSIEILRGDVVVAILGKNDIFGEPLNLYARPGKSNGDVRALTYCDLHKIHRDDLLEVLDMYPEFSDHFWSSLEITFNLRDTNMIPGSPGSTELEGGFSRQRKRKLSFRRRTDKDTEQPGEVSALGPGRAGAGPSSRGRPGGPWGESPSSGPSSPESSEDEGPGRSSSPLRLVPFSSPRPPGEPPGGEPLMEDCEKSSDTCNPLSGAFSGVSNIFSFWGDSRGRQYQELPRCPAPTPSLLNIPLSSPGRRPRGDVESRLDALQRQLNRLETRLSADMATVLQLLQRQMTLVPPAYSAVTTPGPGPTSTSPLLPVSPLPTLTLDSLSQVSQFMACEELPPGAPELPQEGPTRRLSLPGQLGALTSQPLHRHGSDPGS
row,SMILES,"hERG current change (%, negative = inhibition) at 10uM [%]"
1,COc1ccc(C2=NOC(C(=O)NCc3cccs3)C2)cc1OC (centres unmarked),13.6
2,CC(C)CC(NC(=O)c1cccs1)c1nnc(SCc2ccc(Cl)c(Cl)c2)n1C (centres unmarked),-6.85
3,CCOC(=O)CSc1nc2ccc(C)cc2cc1C#N,-12.1
4,COc1ccc(-n2c(CNC(=O)COc3ccccc3)n[nH]c2=S)cc1,13.1
5,COC(=O)CSc1nc(N)nc(C)c1Br,16.2
6,O=C1Nc2ccccc2Nc2ccc([N+](=O)[O-])cc21,-6.92
7,COc1ccc(CC(=O)Nc2nc(C)cs2)cc1S(=O)(=O)N1CCOCC1,-11.5
8,Cc1ccc(/C=N/NC(=O)c2cc3c(s2)CCCC3)o1,3.39
9,Cc1cnc(NC(=O)CSc2ccc(Cl)cc2)s1,-15.7
10,Cc1sc2ncn(CC(=O)N3CCN(c4ccccc4)CC3)c(=O)c2c1S(=O)(=O)N1CCOCC1,-16
11,Cc1ccc(N2CC(C(=O)NCc3nnnn3-c3ccc(C)c(C)c3)CC2=O)cc1 (centres unmarked),-19.8
12,O=C(O)c1cccc2c1C(=O)c1ccccc1-2,23.4
13,CCCCC1=NN(C(=O)c2cocc2C)C(O)(C(F)(F)F)C1 (centres unmarked),5.91
14,Cc1[nH]c(=O)[nH]c(=O)c1S(=O)(=O)N1CCCC1,17.6
15,CC(C)CCNC(=O)C(c1cccs1)N(CC1CCCO1)C(=O)Cn1nnc2ccccc21 (centres unmarked),8.36
16,COC(=O)/C(=C/Nc1ccc(O)cc1)[N+](=O)[O-],12.7
17,COc1ccccc1CNCC(=O)N1CC(=O)Nc2ccccc21.O=C(O)C(=O)O,21.6
18,COc1cccc(N(C(=O)Cn2nnc(-c3ccc(F)cc3)n2)C(C(=O)NCC2CCCO2)c2ccc(Cl)cc2)c1 (centres unmarked),15.3
19,Cc1c(C)[n+](=O)c(-c2ccc(F)cc2)c(C)n1[O-],0.0285
20,Cc1nnc(SCC(=O)Nc2ncc3c(n2)CC(C)(C)CC3=O)s1,0.652
21,COc1ccc(CCNC(=S)N2CCC(Cc3ccccc3)CC2)cc1OC,-41.1
22,CCOC(=O)c1[nH]c2ccccc2c1NC(=S)Nc1ccccc1,11
23,COc1nc(N(C)C)nc(N(OC)S(=O)(=O)c2ccccc2Cl)n1,-5.85

row,SMILES,"hERG current change (%, negative = inhibition) at 10uM [%]"
1,O=C(N[C@@H](Cc1c[nH]c2ccccc12)C(=O)O)c1ccccc1Cl,3.44
2,O=C(Cn1cc2c(n1)CCCC2)NCCCN1CCN(C2CCCCC2)CC1,6.35
3,CN1C(=O)S/C(=C/c2ccc(OCc3cccc(C(=O)O)c3)cc2)C1=O,22.5
4,COc1cc(CNCCSc2nnnn2C)cc(Br)c1OCc1ccccc1F.Cl,-19.5
5,O=C(C[n+]1ccc(C(=O)N/N=C/c2ccc(OCc3ccccc3)cc2)cc1)c1ccccc1.[Br-],1.3
6,NC(=O)c1ccc(NC(=O)CCCN2C(=O)c3ccccc3C2=O)cc1,6.76
7,Cc1nc(-c2ccccn2)sc1C(=O)Nc1ccc(F)cc1F,12.5
8,CC1(C)Oc2ccc(C(=O)Nc3ccccc3)cc2N(CC#N)C1=O,-7.58
9,Cn1c(=O)c2c(nc(CN3CCOCC3)n2CC(O)CO)n(C)c1=O (centres unmarked),-7.88
10,COc1ccc(/C=N/NC(=O)c2cccc(O)c2)cc1Cn1nc(C)c([N+](=O)[O-])c1C,41
11,CCn1c(CCNC(=O)c2cccs2)nnc1SCC(=O)NC1CCCCC1,0.651
12,CCOC(=O)c1[nH]c(COC(=O)c2ccccc2NC(=O)c2ccco2)c(C(=O)OCC)c1C,11.6
13,COc1ccc(C2(CCN)CC(C)N(C)CC2C)cc1.Cl (centres unmarked),-3.79
14,COC(=O)c1c(NC(=O)CN2CCC3(O)CCCCC3C2c2ccc(F)cc2)sc(C)c1C (centres unmarked),-7.57
15,Cc1ccc(CN(Cc2cc3cc(C)ccc3[nH]c2=O)C(=O)N2CCOCC2)cc1,-13.2
16,CCOC(=O)Cc1csc(NC(=O)CSc2nnnn2-c2ccc(CC)cc2)n1,-18
17,COc1ccc(C2=NS(=O)(=O)N(C)C(C(=O)NC(C)c3ccccc3)=C2)cc1OC (centres unmarked),-2.67
18,NC(=S)NNC(=O)c1ccccc1,-10.2
19,O=C(CCNC(=O)c1ccc(Br)cc1)Nc1ncccc1O,21
20,COc1ccc(/C=N/NC(=S)Nc2c(C)n(C)n(-c3ccccc3)c2=O)cc1OC,8.52
21,CSCC[C@H](NS(=O)(=O)c1ccc(C(C)=O)cc1)c1nnc2ccccn12,26.4
22,Cc1oc(C(C)(C)C)c(CN2CCOCC2)c1C(=O)O.Cl,23.6
23,Cc1ccc(-c2nnc(SCC#N)n2N)cc1,17.5

row,SMILES,"hERG current change (%, negative = inhibition) at 10uM [%]"
1,CCOC(=O)C1=C(C)Nc2ccccc2N=C1N,9.47
2,CCCn1c(SCC(=O)NCc2ccco2)nnc1-c1ccncc1,19.9
3,COc1c(Cl)cc(C(=O)Nc2ccc(Cl)cn2)cc1Cl,7.8
4,Cc1ccc(S(=O)(=O)Nc2ccsc2C#N)cc1,18.1
5,Cc1cccc(-n2ncc3c2CCCC3NC(=O)CCN2CCCCO2)c1C (centres unmarked),12.8
6,NC(=O)C1(N2CCCCC2)CCN(C(=O)CSc2nc(C(F)(F)F)cc(=O)[nH]2)CC1,-8.17
7,COc1ccc(CNC(=O)CCCn2c(SCC#N)nc3cc4c(cc3c2=O)OCO4)cc1,7.74
8,Cc1cccc(C(=O)OCC(=O)NNC(=O)c2cccs2)c1O,10.9
9,CCN(CC)c1ccc(NC2CC(=O)N(CCc3ccc(OC)cc3)C2=O)cc1 (centres unmarked),-11.4
10,O=C(NC1CCN(C(=S)NCc2ccco2)CC1)C12CC3CC(CC(C3)C1)C2,4.26
11,Cn1cccc1CC(=O)NNC(=O)Nc1ccc(Cl)cc1,15.2
12,Cc1nc(N)c(C#N)c(-c2ccccc2)c1C,-10.4
13,Cc1nc(C)c(C(=O)N(c2ccc(F)cc2)C(C(=O)NCC2CCCO2)c2ccccc2)s1 (centres unmarked),-6.28
14,CC(O)c1nc2c(c(=O)n(C)c(=O)n2C)n1C (centres unmarked),-3.51
15,OCC1(Cc2ccccc2)CCN(C2CCN(c3ccccc3F)CC2)CC1,-68.8
16,Cc1ccccc1-c1cnn(-c2cccc([N+](=O)[O-])c2)c1N,-56.7
17,CSc1nnc(Cn2c(=O)sc3ccccc32)n1C,11.6
18,Cc1ccc(-n2nc3c(c2NC(=O)C2CC2)CS(=O)(=O)C3)cc1,-9.44
19,O=C1N(Cc2cccnc2)C[C@@H]2C[C@@H](c3ccc(-c4ccccc4)cc3)N3CCC[C@@]123,-71.3
20,COC(=O)c1cc(S(=O)(=O)N2CCN(c3cccc(OC)c3)CC2)cn1C,3.25
21,CCOC(=O)C1CCN(C(=O)CCNS(=O)(=O)c2ccc(C)cc2)CC1,-18.7
22,c1ccc(-c2cc3c(N4CCN(c5ccccc5)CC4)ncnc3s2)cc1,6.09
23,CC1CCCCN1C(=O)Cn1cnc2c1c(=O)n(C)c(=O)n2C (centres unmarked),16.2

row,SMILES,"hERG current change (%, negative = inhibition) at 10uM [%]"
1,CC(CC(=O)NC(C)c1ccc2c(c1)OCCO2)c1ccccc1 (centres unmarked),15.6
2,O=C(CSc1nc(O)c(C2CCCCC2)c(=O)[nH]1)Nc1ccc(Cl)cc1,9.72
3,COC(=O)c1ccccc1C(=O)N1CCCC(CCC(=O)NCc2ccc(F)c(F)c2)C1 (centres unmarked),-10.1
4,CN(Cc1ccccc1)c1ncnc(N)c1[N+](=O)[O-],-4.37
5,C=CCn1c(-c2ccc(Cl)cc2)cnc1SC(C)C(N)=O (centres unmarked),24.7
6,CC1CN=C(Nc2ccc(F)c(Cl)c2)S1 (centres unmarked),2.08
7,Cc1ccc(S(=O)(=O)N2CCOCC2)cc1NC(=O)COC(=O)c1ccccc1OCc1c(C)noc1C,-33.5
8,O=C(OCCCOC(=O)c1cc[n+]([O-])cc1)c1cc[n+]([O-])cc1,3.82
9,CC1CCCC(C)N1S(=O)(=O)c1ccc(S(=O)(=O)NCc2ccccc2)cc1 (centres unmarked),8.78
10,COc1cc(-c2nnc3n2CCCCC3)cc(OC)c1OC,21.4
11,CC(C)(C)OC(=O)N[C@@H](Cc1ccccc1)C(=O)N1CCC(C(=O)O)CC1,-0.864
12,Cc1cc(Cl)c2oc(C(=O)NCCN3CCCCC3CO)c(C)c2c1 (centres unmarked),-42.2
13,CC(C)Cc1nn2c(=O)cc(O)nc2s1,11.3
14,Fc1ccc(Nc2ccc3ccccc3n2)c(F)c1,3.37
15,CCC1OC(c2ccc([N+](=O)[O-])cc2)=Nc2ccccc21 (centres unmarked),4.03
16,c1ccc(-c2ccc(C(c3ccccc3)n3ccnc3)cc2)cc1 (centres unmarked),3.15
17,CCNC(=S)N(CCc1c(C)[nH]c2ccc(F)cc12)Cc1cccnc1,-26.5
18,S=C(Nc1ccccc1Oc1ccccc1)Nc1cccc(Cl)c1Cl,8.66
19,COCCN1C(=O)N(c2ccc(OC)cc2)C(=O)C1CC(=O)Nc1cccc(F)c1 (centres unmarked),1.87
20,Nc1cccc(-c2cc3ccccc3oc2=O)c1,6.38
